About 340 (0.77%) of roughly 44,000 compounds were called active. Roughly 5% stayed inconclusive and do not appear here. Calls follow the shape of the dose curve; as a rule, active = well fitted inhibition curve with a large enough effect; inconclusive = small, poorly fitted or top-dose-only effect; inactive = flat fitted curve, though single readings scatter. The list shows a part of the results.
experiment: Acumen qHTS Assay for Inhibitors of the mTORC1 Signaling Pathway in MEF (Tsc2-/-, p53-/-) Cells: Sytravon; settings: phospho-rpS6 immunofluorescence/PI, 24 h; series mostly up to 38.3 µM; activity change, negative = inhibition: at the top concentration;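 also: plate controls were DMSO for no effect and rapamycin for full effect; nearly all actives have a fitted effect of over 50% in size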
Outline: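 Immunofluorescence of rpS6 phosphorylation in Tsc2-/-, p53-/- MEFs after 24 h compound exposure, normalized to propidium iodide signal. Activity is expressed as % positive cells, thresholded with 7.5 nM rapamycin.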

Activity change, negative = inhibition, inactive:
CCOC(=O)c1c(NC(=O)CSc2cn(CCNC(=O)c3ccc(OCC)cc3)c3ccccc23)sc2c1CCCC2 3.66%, COc1cccc(N2C(=O)C(CC(=O)Nc3cccc(F)c3)N(C(C)C)C2=O)c1 (stereo unspecified) -5.03%, Cc1cccc(CC(=O)NC2CC(=O)N(c3cccc(F)c3)C2)c1 (stereo unspecified) -15.4%, Cc1cc(N2CCCCC2)nc2ccc(NC(=O)c3ccc(F)cc3)cc12 -0.398%, COc1ccc(OC)c(NC(=O)C2CCN(S(=O)(=O)c3ccc(C)cc3)CC2)c1 -2.35%, COCCNC(=O)CSc1nc(-c2ccc(F)cc2)[nH]c1-c1ccc(Cl)cc1 0.895%, CC(CNC(=O)Cn1ncc2c3ccccc3n(Cc3cccc(Cl)c3)c2c1=O)c1ccccc1 (stereo unspecified) 1.18%, O=C(COc1ccccc1)Nc1ccc(OCc2cc(=O)n3ccsc3n2)cc1 -0.202%, CCOc1ccc(C(=O)Nc2ccc(S(=O)(=O)N(Cc3ccccc3)c3ccccc3)cc2)cc1 -6.96%, COc1ccc(OC)c(C2CC(=O)N(c3cccc(C)c3)C3=C2C(=O)OC3)c1 (stereo unspecified) -10.8%, CN(C(=O)CSc1nc2ncccc2o1)c1ccc(F)cc1 -20.4%, CC(C)CCNC(=O)C(=O)Nc1c2c(nn1-c1ccccc1)CS(=O)(=O)C2 -2.97%, O=C(CSc1nc2cc3ccccc3cc2[nH]1)Nc1cccc(C(F)(F)F)c1 -6.79%, CNS(=O)(=O)c1cn(CC(=O)Nc2ccc(OC)c(Cl)c2)cc1S(=O)(=O)NC -4.71%, COc1ccccc1N1CCN(S(=O)(=O)c2ccc(-c3cc(C(F)(F)F)on3)s2)CC1 -9.44%, CCOC(=O)c1cc(OC(=O)c2cccc(C)c2)n(-c2ccccc2)n1 -14%, COCc1cc(C)nc2sc3c(c12)NC(c1ccc(NC(C)=O)cc1)N(c1ccc(C)cc1)C3=O (stereo unspecified) -0.701%, COc1cccc(CNc2ncnc3onc(-c4ccc(F)cc4)c23)c1 -7.07%, O=c1c2ccccc2n(Cc2cccc(Cl)c2)c(=O)n1CCc1ccccc1 2.07%, COc1ccc(-c2cc(C(C)=O)c(C)n2CCC(=O)Nc2cc(C)ccc2OC)cc1 -7.77%, CC(=O)NCCc1nc2ccccc2n1CCCCOc1ccc(Cl)cc1 -7.12%, COc1cccc2cc(-c3nc4sc(C(=O)Nc5ccc(F)cc5F)c(C)c4c(=O)[nH]3)c(=O)oc12 6.72%, Cc1ccc(C)c(N2CCN(c3ncnc4onc(C)c34)CC2)c1 -15.3%, COCc1cc(C)nc2sc3c(=O)n(-c4cc(C)ccc4C)nnc3c12 3.61%, CCOC(=O)c1ccccc1NC(=O)N1CCN2CCCCC2C1 (stereo unspecified) -0.449%, CC(=O)Nc1nonc1-c1nnc(SCC(=O)Nc2cc(C)ccc2C)n1-c1ccccc1 -23.3%, COc1ccccc1CCNC(=O)Cc1c(C)c2ccc(O)cc2oc1=O 2.58%, CCOc1ccc(Nc2oc(/C=C/c3ccc(F)cc3)nc2C#N)cc1 -2.31%, COc1ccc(CNc2nc3c(S(=O)(=O)c4ccccc4)nnn3c3ccc(Cl)cc23)cc1 -9.47%, Cc1ccc(NC(=O)C(=O)NCC(c2cccnc2)N2CCN(C)CC2)cc1C (stereo unspecified) 7.2%, COc1ccc(NC(=O)c2oc3c(c2C)-c2nn(Cc4c(F)cccc4Cl)cc2CC3)c(OC)c1 -16.2%, Cc1ccc(OCC(=O)Nc2ccc(C(=O)OCc3cc(=O)n4nc(C5CC5)sc4n3)cc2)cc1 0%, CCc1ccc(NC(=O)c2cc3ccccn3n2)cc1 -12.1%, Cc1cc(C)c2c(CC(=O)Nc3nnc(C(C)C)s3)coc2c1 -4.31%, Fc1ccccc1CNCCCSc1nnnn1-c1ccccc1 -19.2%, O=C(CSc1nc(=O)[nH]c2c1CCCC2)Nc1cc(C(F)(F)F)ccc1Cl -0.467%, COc1ccc(-c2nnc(Nc3ccc(OCC(N)=O)cc3)c3ccccc23)cc1 11.1%, Cc1cc(C)n(-c2nc3ccccc3nc2Nc2cccc(C(F)(F)F)c2)n1 3.58%, COc1ccc(C2C(C(=O)Nc3ccccc3)=C(C)Nc3nc(-c4ccccc4)nn32)cc1OC (stereo unspecified) -15.7%, COc1ccc(OC)c(-c2nc(Nc3ccccc3C)sc2CC(=O)O)c1 -7.02%, CCOC(=O)c1ccccc1NC(=O)CSc1ccc(-c2sc(-c3ccccc3)nc2C)nn1 2.96%, O=C1CCSC2(C(=O)N(Cc3ccc(F)cc3)c3ccccc32)N1c1ccccc1 (stereo unspecified) 0%, CC(C)CCNC(=O)CN1C(=O)COc2ccc(S(=O)(=O)N3CCOCC3)cc21 -8.06%, COc1ccc(NC(=O)C(=O)NCCc2ccccc2)cc1OC -10.4%, CC(C)c1ccc(NC(=O)C2CCCN(S(=O)(=O)c3ccc(Br)s3)C2)cc1 (stereo unspecified) -3.28%, COc1cccc(C(=O)Nc2ccccc2C(=O)OCc2cc(=O)n3nc(C)sc3n2)c1 0%, CCOC(=O)c1cccc(NC(=O)c2cc3c(Cl)nc4ccc(C)cc4c3s2)c1 -0.962%, COc1ccc(-n2cc(-c3ccccc3)c3c(SC(C)C(C)=O)ncnc32)cc1 (stereo unspecified) 5.1%, CCc1ccc(NS(=O)(=O)c2ccc3[nH]cc(C(=O)NC4CCCC4)c(=O)c3c2)cc1 0.852%, Fc1ccc(-c2cc(-c3nc(-c4cccc(Cl)c4)no3)[nH]n2)cc1 0.499%, CC1CCC(NC(=O)c2ccc3c(c2)N(Cc2cccc(F)c2)C(=O)c2ccccc2S3)CC1 (stereo unspecified) -3.14%, CCc1nnc(SCc2ccc(F)cc2Cl)c2cc3sccc3n12 3.56%, Cc1ccc(C)c(NC(=O)C(C)n2c(=O)cc(C(F)(F)F)c3c(C)nn(C)c32)c1 (stereo unspecified) -0.342%, CCN1CCN(C(=O)c2ccc3c(c2)N(Cc2cccc(Cl)c2)C(=O)c2ccccc2S3(=O)=O)CC1 -0.49%, COc1ccccc1CNC(=O)CSc1ncc2c(n1)-c1ccccc1N(Cc1ccc(C)cc1)S2(=O)=O 0.889%, COc1ccc(-c2noc(C3CC(=O)N(c4ccc(C)c(F)c4)C3)n2)c(OC)c1 (stereo unspecified) 0%, COc1ccc(Cl)cc1C(=O)NCC(c1ccc(N(C)C)cc1)N1CCCC1 (stereo unspecified) 0%, Cc1ccc(C)c(NC(=O)Cn2c(=O)n(CCCS(=O)(=O)C3CCCCC3)c(=O)c3ccccc32)c1 3.29%, Cc1ccc(NC(=O)C2CCCN(S(=O)(=O)c3ccc4c(c3)CCCC(=O)N4)C2)cc1N(C)C (stereo unspecified) -13.1%, O=C(Cn1c(-c2cccs2)cc2cc(Cl)ccc21)N1CCCCC1 -19.5%, Cc1ccc(-c2ccc(CCC(=O)O)n2-c2ccc(C)c(Cl)c2)cc1 -13%, CCOc1cc(C(=O)Nc2ccc(-c3nnc4n3CCCCC4)cc2)cc(OCC)c1OCC 0.89%, Fc1ccc(-c2nnn3c2nc(NCc2ccccc2)c2ccccc23)cc1 -5.29%, O=C1CN(C(=O)c2c(F)cccc2Cl)C(c2ccc(F)cc2)c2cc(Br)ccc2N1 (stereo unspecified) -0.158%, Cn1c(=O)n(C)c2cc(N3CCOCC3)c(NS(=O)(=O)c3ccc(F)cc3)cc21 -1.56%, Cc1ccc2c(c1)c1c(c(=O)n(-c3ccccc3)c(=O)n1CC(=O)c1ccc(Cl)cc1)n2C -4.49%, CN(C(=O)CSc1nc2ccc(NC(=O)c3cccs3)cc2s1)c1ccccc1 -1.49%, CCOc1ccc(NC(=O)CSc2nccn2C2CCCC2)cc1 -3.11%, CCc1ccc(CNC(=O)C2CCN(C(=O)c3ccc(-n4c(C)cc5ccccc54)s3)CC2)cc1 -10.3%, COc1ccc(-n2c(=O)c3c4c(sc3n(CC(=O)C(C)(C)C)c2=O)CCCC4)c(OC)c1 2.61%, COC(=O)c1cccc(CN2C(=O)SC(Nc3ccccc3C)C2=O)c1 (stereo unspecified) 0.871%, Cc1ccc(CN2C(=O)CN(C3CCCCCC3)C(=O)C2c2ccc(F)cc2)cc1 (stereo unspecified) 2.2%, COc1ccc(C(=O)Nc2nc(-c3nnn(-c4cc(OC)ccc4OC)c3C)ns2)cc1 -6.65%, Cc1ccc(OCc2cc(=O)n3c(-c4ccccc4)csc3n2)cc1 -7.37%, O=C(Cn1nnc(-c2cccc(C(F)(F)F)c2)n1)NCc1ccc(F)cc1 -6.57%, CCc1ccc(CNC(=O)c2cc3cc4ccc(OC)cc4nc3o2)cc1 1.12%, COc1ccc(-c2cc(C(=O)NCc3ccc(C)cc3)c3cc(C(C)C)ccc3n2)cc1 2.69%, Cc1ccc(NC(=O)C(=O)NCC(c2ccc3c(c2)OCO3)N2CCN(C)CC2)cc1C (stereo unspecified) -8.41%, COc1cc(NC(=O)Nc2c[nH]c(=O)[nH]c2=O)cc(OC)c1OC 8.3%, CC(C)CCNC(=O)Cn1cc(S(=O)(=O)Cc2ccc(F)cc2)c2ccccc21 -4.14%, CCN(CC)S(=O)(=O)c1ccc2c(c1)c(=O)c(C(=O)N1CCN(c3ccccc3OC)CC1)cn2C -7.31%, CCCCOc1ccc(S(=O)(=O)n2nc(C)c(S(=O)(=O)N3CCCCCC3)c2C)cc1 -0.469%, O=C1CCSC2(C(=O)N(Cc3ccccc3)c3ccccc32)N1c1ccccc1 (stereo unspecified) -13.3%, O=C(NCCCN1CCN(c2ccccc2F)CC1)c1sc2ncccc2c1-n1cccc1 0.821%, COc1cccc2cc(-c3nc4ccc(C)cc4[nH]3)c(=O)oc12 6.02%, CCCC(=O)OC1=C(C(C)=O)N(Cc2ccccc2)S(=O)(=O)c2ccccc21 -0.476%, Cc1cc(S(=O)(=O)NCCc2csc(-c3cccc(F)c3)n2)ccc1F -0.892%, CCN(Cc1ccccc1)S(=O)(=O)c1ccc(N2CCCCS2(=O)=O)cc1 0.633%, CCc1ccc2nc(N3CCC(C(=O)NCCC(C)C)CC3)sc2c1 0%, CCCCNC(=O)c1cnc2c(-c3ccc(OCC)c(OCC)c3)c(C)nn2c1-c1ccccc1 -5.43%, O=C(CCS(=O)(=O)c1cc2c(cc1Cl)NC(=O)CO2)NCc1ccccc1 0%, CCc1cccc(C)c1NC(=O)c1cc2ccccc2o1 7.83%, Cn1cc(S(=O)(=O)c2ccccc2)c(=O)c2cc(F)c(N3CCCC3)cc21 -0.0236%, O=C(NCc1ccccc1)c1ccc(CSc2nc3cccnc3n2Cc2ccccc2)cc1 -15.7%, COc1ccc(NC(=O)Cn2cc(S(=O)(=O)c3ccccc3)c(=O)c3cc(C)ccc32)cc1Cl 2.25%, COc1cccc(N2CCN(C(=O)c3ccc4c(Cl)c5c(nc4c3)CCCC5)CC2)c1 -14.9%

— PubChem BioAssay AID493208 (National Center for Advancing Translational Sciences (NCATS), 2011)
